Experimental data from patent publication US20220363781A1 (SICHUAN KELUN BIOTECH BIOPHARMACEUTICAL, published 2022).
Numbering of substitutions follows the chain as printed. Read-outs that look alike come from different tables or passages of the source. Values belong to the binder of their own block, whether it stands above or below them.

Legend:
human TSLP-His [1] = target: T1, human TSLP-His (human, UniProt Q969D9 29-159); test: cell-based or functional assay
[2] = target: T2, monkey TSLP-His (cynomolgus monkey, Macaca fascicularis) (cynomolgus monkey (Macaca fascicularis), UniProt A0A7N9CAT7 29-159); test: ELISA, monkey TSLP-His coated, antibody titrated, anti-human Fc-HRP
T2 construct: Whole entry XP_005557555.1 is named; also called cTSLP
T2 sequence: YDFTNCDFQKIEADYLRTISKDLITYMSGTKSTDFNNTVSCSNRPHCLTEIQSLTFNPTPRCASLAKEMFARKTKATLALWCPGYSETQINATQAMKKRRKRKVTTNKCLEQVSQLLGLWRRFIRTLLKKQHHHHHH

human TSLP-His [3] = target: T1, human TSLP-His; test: ELISA, human TSLP-His coated, antibody titrated, anti-human Fc-HRP
human TSLP-His [4] = target: T1, human TSLP-His; test: BLI (Fortebio), antibody on ProA sensor, human TSLP 1.5625-100 nM, 1:1 model
human TSLP-His [5] = target: T1, human TSLP-His; test: cell-based or functional assay; remark: listed apart in the source
[6] = target: T2, monkey TSLP-His (cynomolgus monkey, …); test: BLI (Fortebio), antibody on ProA sensor, monkey TSLP 1.5625-100 nM, 1:1 model
FcRn (biotin-labeled) [7] = test: BLI (Fortebio), biotin-FcRn on SA sensor, antibody 1.5625-200 nM, pH 6.0, 1:1 model
human TSLP-His [8] = target: T1, human TSLP-His; test: BLI (Fortebio), antibody on ProA sensor, human TSLP titrated, 1:1 model
human TSLP-His [9] = target: T1, human TSLP-His; test: cell-based or functional assay; remark: listed apart in the source
FcRn (biotin-labeled) [10] = test: BLI (Fortebio), biotin-FcRn on SA sensor, pH 6.0
human TSLP-His [11] = target: T1, human TSLP-His; test: cell-based or functional assay; remark: listed apart in the source

hTSLP EC50, inhibition of the proliferation of Ba/F3-hTSLPR-hIL7Rα cells (human TSLP-His [1]): 0.031 nM
EC50 [2]: 0.23 nM
EC50 (human TSLP-His [3]): 0.8 nM
Kd (human TSLP-His [4]): 0.581 nM
EC50, inhibition of human TSLP-induced PBMC secretion of TARC (human TSLP-His [5]): 0.44 nM
Kd [6]: 1.02 nM
B1: recombinant fully human antibody 43B1A8-hIgG (antibody)
heavy: QMQLVESGGGAVQPGRSLRLSCAASGFTFRSYDMHWVRQAPGKGLEWVAVIWYDGSNENYADSVKGRFTTSRDNSKNTLFLQMNSLRAEDTAVYYCARSPLWYGEPDDAFDIWGQGTLVTVSSASTKGPSVFPLAPSSKSTSGGTAALGCLVKDYFPEPVTVSWNSGALTSGVHTFPAVLQSSGLYSLSSVVTVPSSSLGTQTYICNVNHKPSNTKVDKKV[human IgG1 Fc with L234A L235A G237A (EU numbers) cut from this listing]
light: EIVMTQSPATLSVSPGERATLSCRASQSVSSNLAWYQQKPGQAPRLLISGASTRATGIPARFSGSGSGTDFTLTISSLRSEDFAVYYCQHYNNWPLTFGGGTKVEIKRTVAAPSVFIFPPSDEQLKSGTASVVCLLNNFYPREAKVQWKVDNALQSGNSQESVTEQDSKDSTYSLSSTLTLSKADYEKHKVYACEVTHQGLSSPVTKSFNRGEC
notes: also called 43BlA8-hIgG; 43B1A8-hIgGlt

Kd (FcRn (biotin-labeled) [7]): 4.23 nM
Kd (human TSLP-His [8]): 0.419 nM
hTSLP EC50, inhibition of the proliferation of Ba/F3-hTSLPR-hIL7Rα cells (human TSLP-His [9]): 0.46 nM
fold affinity for FcRn against the control antibody (FcRn (biotin-labeled) [10]): ~2 times that of the control antibody
B2: recombinant fully human antibody 43B1-H6L1 (antibody, human IgG4 S228P, kappa)
heavy: QMQLVESGGGAVQPGRSLRLSCAASGFTFRSYDMHWVRQAPGKGLEWVAVIWYDGSNENYADSVKGRFTTSRDNSKNTLFLQMNSLRAEDTAVYYCARSPLWYGEPDDAFDIWGQGTLVTVSSASTKGPSVFPLAPCSRSTSESTAALGCLVKDYFPEPVTVSWNSGALTSGVHTFPAVLQSSGLYSLSSVVTVPSSSLGTKTYTCNVDHKPSNTKVDKRV[human IgG4 Fc with S228P N434A (EU numbers) cut from this listing]
light: B1 light

Kd (FcRn (biotin-labeled) [7]): 5.25 nM
Kd (human TSLP-His [8]): 0.233 nM
hTSLP EC50, inhibition of the proliferation of Ba/F3-hTSLPR-hIL7Rα cells (human TSLP-His [9]): 0.64 nM
EC50, inhibition of human TSLP-induced PBMC secretion of MDC (human TSLP-His [11]): 7.84 pM
fold affinity for FcRn against the control antibody (FcRn (biotin-labeled) [10]): ~2 times that of the control antibody
B3: recombinant fully human antibody 43B1-H2L2 (antibody, human IgG1, kappa)
heavy: QMQLVESGGGAVQPGGSLRLSCAASGFTFRSYDMHWVRQAPGKGLEWVAVIWYDGSNENYADSVKGRFTTSRDNSKNTLFLQMNSLRAEDTAVYYCARSPLWYGEPDDAFDIWGQGTLVTVSSASTKGPSVFPLAPSSKSTSGGTAALGCLVKDYFPEPVTVSWNSGALTSGVHTFPAVLQSSGLYSLSSVVTVPSSSLGTQTYICNVNHKPSNTKVDKKV[human IgG1 Fc with L234A L235A G237A N434A (EU numbers) cut from this listing]
light: B1 light with R79Q
